Laboratory results from publication PMC13083723 (Patterns, 2026).
Out of some 5,400 compounds screened, about 190 (3.5%) showed an effect of 50% or more. This is one part of the list.

Each compound was assayed on Vero-E6 (assay: primary screen, phospholipidosis by LipidTOX staining; higher = more effect of the substance). Conditions: 10 µM.
Summary of the method: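 Drug-induced phospholipidosis detected with HCS LipidTOX Red reagent in Vero-E6 cells. Compounds tested at 10 μM, with amiodarone (10 μM) as positive control and DMSO (0.1 v/v %) as vehicle.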

| SMILES | result_ITMP [%] |
| --- | --- |
| CN[C@@H](C)C(=O)N[C@H]1CCCC[C@H]2CCC(C(=O)N[C@@H](c3ccccc3)c3cn(CCCCc4ccc(CCCCn5cc([C@@H](NC(=O)[C@@H]6CC[C@@H]7CCCC[C@H](NC(=O)[C@H](C)NC)C(=O)N76)c6ccccc6)nn5)cc4)nn3)N2C1=O (stereo partly shown) | 8.05 |
| CC[C@@H]1/C=C(\C)C[C@H](C)C[C@H](OC)[C@H]2O[C@@](O)(C(=O)C(=O)N3CCCC[C@H]3C(=O)O[C@H](/C(C)=C/[C@@H]3CC[C@@H](O)[C@H](OC)C3)[C@H](C)[C@@H](O)CC1=O)[C@H](C)C[C@@H]2OC | -2.4 |
| Cn1cc(-c2[nH]c3cc(NC(=O)[C@H](N)C4CCCCC4)cc4c3c2C=NNC4=O)cn1 | -5.22 |
| CC1(C)CNc2cc(NC(=O)c3cccnc3NCc3ccncc3)ccc21 | -0.14 |
| CCCCOc1nc(N)c2c(n1)N(Cc1cccc(CN3CCCC3)c1)CC(=O)N2 | -2.95 |
| CN(C)c1cccc(-c2c3c(=O)n(-c4ccccc4Cl)[nH]c3cc(=O)n2C)c1 | -4.23 |
| COC(=O)C1=C(C)NC(C)=C(C(=O)OCCN(C)Cc2ccccc2)C1c1cccc([N+](=O)[O-])c1 (stereo not shown) | 6.14 |
| C[C@]12CCC(=O)C=C1CCC1C2[C@@H](O)C[C@@]2(C)C1CC[C@]2(O)C(=O)COC(=O)CCC(=O)O (stereo partly shown) | -1.39 |
| Cc1nc(C#Cc2ccnc(Cl)c2)c(C)n1-c1ccc(OC(F)(F)F)cc1 | -6.8 |
| OC[C@H]1O[C@@H](c2ccc(Cl)c(Cc3ccc(O[C@H]4CCOC4)cc3)c2)[C@H](O)[C@@H](O)[C@@H]1O | -9.54 |
| COc1ccc(C2CC(c3ccccc3)=NN2c2ccc(S(N)(=O)=O)cc2)cc1 (stereo not shown) | -11.9 |
| CCOc1ccccc1-n1c(C(C)N2CCN(C(=O)COc3ccc(Cl)cc3)CC2)nc2ccccc2c1=O (stereo not shown) | -9.74 |
| CC(=O)N1CCN(C)CC1 | -1.39 |
| Cc1cc(-c2ccc(CC(=O)Nc3ccc(-c4cccnc4)cc3)cc2)ccn1 | -0.82 |
| C[C@H]1Oc2cc(cnc2N)-c2c(nn(C)c2C#N)CN(C)C(=O)c2ccc(F)cc21 [R4A_0001637_001 / SPE_A23124853] | -7.18 |
| CN1CCN(c2c(F)cc3c(=O)c(C(=O)O)cn4c3c2SCC4)CC1 | 4.79 |
| NCCCC[C@H](NC(=O)[C@@H]1CCCN1C(=O)[C@@H]1CSSC[C@H](N)C(=O)N[C@@H](Cc2ccc(O)cc2)C(=O)N[C@@H](Cc2ccccc2)C(=O)N[C@@H](CCC(N)=O)C(=O)N[C@@H](CC(N)=O)C(=O)N1)C(=O)NCC(N)=O | -9.53 |
| COCCOc1ccc2c(c1)ncn2-c1ccc2cccc(N3CCC(N)CC3)c2n1 | 62.5 |
| Cc1cc(-c2ncc(CC(=O)Nc3ccc(-c4cnccn4)cn3)cc2C)ccn1 | 24.4 |
| O=C(O)COCCN1CCN([C@H](c2ccccc2)c2ccc(Cl)cc2)CC1 | -0.8 |
| COc1ccc2c(O[C@@H]3C[C@H]4C(=O)N[C@]5(C(=O)NS(=O)(=O)C6CC6)C[C@H]5/C=C\CCCCN(C)C(=O)[C@@H]4C3)cc(-c3nc(C(C)C)cs3)nc2c1C | -1.22 |
| Cc1cnc(C(=O)NCCc2ccc(S(=O)(=O)NC(=O)NC3CCCCC3)cc2)cn1 | 1.86 |
| O=C(Cc1ccccc1)Nc1nc2ccc(Cl)cc2c2nc(-c3ccco3)nn12 | -0.77 |
| CC(C)NC[C@H](O)COc1cccc2[nH]ccc12 | -11.5 |
| CN1CCC(NC(=O)c2cc(-c3c(O)cc(O)cc3Oc3ccc([N+](=O)[O-])cc3)on2)CC1 | -1.53 |

| SMILES | result_ITMP [%] |
| --- | --- |
| CC(C)Cc1ccc(C(C)C(=O)O)cc1 (stereo not shown) [R4A_0001344_001 / SPE_M64062803] | -5.52 |
| c1cc(-c2cnn3cc(-c4ccc(OCCN5CCCCC5)cc4)cnc23)ccn1 | 27.5 |
| O=C(c1cc(S(=O)(=O)Nc2ccccc2F)c(F)cc1Cl)N1CCN2CCC[C@@H]2C1 | -2.45 |
| c1cc2c3c(c1)c1c(n3CCNC2)CCCC1 | 25.2 |
| O=C1[C@H](CC[C@H](O)c2ccc(F)cc2)[C@@H](c2ccc(O)cc2)N1c1ccc(F)cc1 | -0.02 |
| Brc1c(Br)c(Br)c2[nH]nnc2c1Br | -8.08 |
| O=C(CCn1cnc2c(O)ncnc21)Nc1ccc(C(=O)O)cc1 | -5.54 |
| COc1ccccc1N1CCN(CCCCNC(=O)c2ccc3ccccc3c2)CC1 | 34.4 |
| CCC1NC(=O)c2cc(S(N)(=O)=O)c(Cl)cc2N1 (stereo not shown) | -5.39 |
| Nc1ncnc2c1C(=O)N(c1ccc([C@H]3CC[C@H](CC(=O)O)CC3)cc1)CCO2 | -1.59 |
| Cc1ccc2c(=O)c3ccccc3n(CCCN)c2c1C | 13.5 |
| O=C([O-])C(Cl)Cl | -4.51 |
| Cc1ncc(COP(=O)(O)O)c(C=O)c1O | -4.81 |
| Cc1n[nH]c(C)c1Cc1sc2c(c1C(=O)N1C[C@H](O)CO1)c(=O)n(C)c(=O)n2CC(C)C | -2.38 |
| CC(=C\c1ccc(Cl)cc1)/C(C)=N/O | -1.28 |
| N#CN/C(=N\c1ccncc1)NCCCCCCOc1ccc(Cl)cc1 | 0.38 |
| CC(C)c1ccc(NC(=O)c2cccs2)c(-c2nc3ccccc3[nH]c2=O)c1 | 0.78 |
| CCCCCCCCCCCCCC(=O)OC(C)C | -2.19 |
| CC(COc1ccccc1Cc1ccccc1)N1CCCCC1 (stereo not shown) | 72 |
| CNCC(O)c1ccc(O)cc1 (stereo not shown) | -3.91 |
| C=CCNc1c(O)cc2c(O)c1C[C@@H](C)C[C@H](OC)[C@H](O)[C@@H](C)/C=C(\C)[C@H](OC(N)=O)[C@@H](OC)/C=C\C=C(/C)C(=O)N2 | -1.56 |
| CC(C)NCC(O)c1ccc(N)c(C#N)c1 (stereo not shown) | -4.02 |
| C=C[C@@H]1C[C@]1(NC(=O)[C@@H]1C[C@@H]2CN1C(=O)[C@H](C(C)(C)C)NC(=O)O[C@@H]1C[C@H]1CCCCCc1nc3ccc(OC)cc3nc1O2)C(=O)NS(=O)(=O)C1CC1 | 0.35 |
| CC1(C)S[C@@H]2C(N3C(=O)[C@@H](c4ccccc4)NC3(C)C)C(=O)N2[C@H]1C(=O)[O-] (stereo partly shown) | -1.52 |
